Results reported in US20250171556A1, “MULTISPECIFIC ANTIBODIES FOR TREATING CD47-ASSOCIATED DISEASES” (Virtuoso BINco, Inc., priority 2021, published 2025).

What was measured:
human CD47 = human CD47 (Homo sapiens, UniProt Q08722); assay: ELISA binding to recombinant human CD47; settings: plate coated with 1 μg/ml recombinant human CD47
Method: (§1) A 96-well plate was coated overnight at 4° C. with 1 μg/ml recombinant human CD47 or human EpCAM. After washing 3 times, the plate was blocked with 300 μl 1% BSA in PBST at 37° C. for 1 hour. Serially diluted antibodies were added and incubated at 37° C. for 1 hour. The plate was then washed 4 times with PBST and incubated with 1:5000 diluted peroxidase labeled goat anti-human IgG (Fab specific) secondary antibody (Sigma, Cat #A0293) for 1 hour at 37° C. The plate was washed again 4 times with PBST, incubated with 3,3′,5,5′-tetramethylbenzidine (TMB) substrate for 15 min at room temperature, terminated with 1N HCl, and then read at 450 nm.
as §1, with “μg/mL” for “μg/ml”, “EGFR.” for “EpCAM.”, “μL” for “μl”
ELISA assay was performed as described in EXAMPLE 3. […]

human EpCAM = target: T1, human EpCAM (Homo sapiens, UniProt P16422); assay: ELISA binding to recombinant human EpCAM; settings: plate coated with 1 μg/ml recombinant human EpCAM
T1 sequence (P16422 24-314): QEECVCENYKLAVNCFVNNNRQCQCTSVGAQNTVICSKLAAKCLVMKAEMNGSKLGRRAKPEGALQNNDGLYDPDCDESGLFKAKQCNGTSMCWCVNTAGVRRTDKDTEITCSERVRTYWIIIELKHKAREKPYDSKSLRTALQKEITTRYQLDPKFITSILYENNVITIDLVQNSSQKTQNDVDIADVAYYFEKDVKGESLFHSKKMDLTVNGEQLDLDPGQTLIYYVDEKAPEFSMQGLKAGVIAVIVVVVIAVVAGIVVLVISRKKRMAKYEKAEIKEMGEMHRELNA
Method: as §1
ELISA assay was performed as described in EXAMPLE 3. The bindings of CD47×EpCAM_v9, v10 and v11 on human EpCAM and human CD47 were tested.

B1: v9: three-chain anti-CD47 × anti-EpCAM bispecific antibody; SEQ ID NOs 503, 504, 505 (protein)
chain 1: EVQLVESGGGLVQPGGSLRLSCAASGFTFNTYAMHWVRQAPGKGLEWVARIRSKTYNYATFYADSVKGRFTISRDDSKNTLYLQMNSLRAEDTAVYYCVTGSSYAMDYWGQGTTVTVSS[letters of human IgG1 constant region with changes left out]
chain 2: DIQLTQSPSSLSASVGDRVTFTCRASQSIGTSLHWYQQKPGKAPKLLIKYASESISGIPSRFSGSGSGTDFTLTISSVQPEDFATYYCQQSNSWPYTFGQGTKLEIKRTVAAPSVFIFPPSDEQLKSGTASVVCLLNNFYPREAKVQWKVDNALQSGNSQESVTEQDSKDSTYSLSSTLTLSKADYEKHKVYACEVTHQGLSSPVTKSFNRGEC
chain 3: EVQLLESGGGLVQPGGSLRLSCAASGFTFSNFAMSWVRQAPGKGLEWVSTISASGGRTFYADSVKGRFTISRDNSKNTLYLQMNSLRAEDTAVYYCAKEGSFGEGVDPWGQGTLVTVSSGGGGSGGGGSGGGGSSYELTQPPSVSVSPGQTARITCSGDALPKKYAYWYQQKSGQAPVLVIYEDNKRPSGIPERFSGSSSGTMATLTISGAQVEDEADYYCYSTDISGNHWVFGGGTKLTVLGGSGGSGGA[letters of human IgG1 Fc with changes left out]
ELISA binding on human CD47 recombinant protein (human CD47): robustly | ELISA binding on human EpCAM recombinant protein (human EpCAM): robustly
